# Source: PubChem BioAssay AID588855 (National Center for Advancing Translational Sciences (NCATS), 2011)
# Screen size: about 410,000 compounds; about 5,000 (1.2%) were called active. The inconclusive results got no clear call from the source; some entries with a clear call stand among them for comparison. The call rests on the fitted dose curve; in most records, active means well fitted inhibition curve with a large enough effect; inconclusive means small, poorly fitted or top-dose-only effect; inactive means no such curve, though single readings can be large or run the other way. Potencies of inconclusive entries are doubtful fits and often do not repeat.
# Assay: qHTS for Inhibitors of TGF-b; further: nearly all actives have a fitted effect of over 65% in size
# Details: HepG2 CAGA-GFP TGF-b/SMAD3 reporter, GFP fluorescence, 18 h, TGF-beta stimulated, 500 pg/mL final; series mostly up to 46.1 µM
# Outline: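 Smad-responsive CAGA-GFP expression was quantified in HEPG2 cells exposed to compounds and 500 pg/mL final TGF-beta for 18 h at 37 degrees C; unstimulated wells defined full inhibition.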
# Potency means the concentration at half of the fitted maximal effect; tags describe the fitted curve by direction and shape.
row,Compound,Potency
1,COc1ccc(C2CC(c3ccccc3)=NN2c2ccc(S(N)(=O)=O)cc2)cc1 (stereo not given),"inconclusive: 6.31 µM [inhibitor, full curve, poor fit]"
2,O=C(Nc1ccccc1)c1cc(C2CCCCN2C(=O)c2ccccc2)on1 (stereo not given),"inconclusive: 20 µM [inhibitor, single point]"
3,CC(C)N1C(=O)/C(=C\c2nc3ccccc3c(=O)n2-c2ccccc2)c2ccccc21,inactive
4,C=CCN(c1ccccc1)S(=O)(=O)c1cccc(C(=O)NCc2ccco2)c1,inactive
5,O=C(CSCc1c(F)cccc1Cl)Nc1cccnc1,"inconclusive: 0.447 µM [inhibitor, full curve]"
6,COc1ccc(N2CCN(C(=O)CC34CC5CC(CC(C5)C3)C4)CC2)c([N+](=O)[O-])c1,"inconclusive: 0.562 µM [inhibitor, full curve]"
7,Cc1sc(NC(=O)CN(Cc2ccccc2)C(=O)C2CC2)c(C(N)=O)c1C,"inconclusive: 15.8 µM [inhibitor, single point]"
8,O=C(Nc1ccc2oc(-c3cccnc3)nc2c1)c1ccc(-c2ccccc2OC(F)(F)F)o1,"inconclusive: 17.8 µM [inhibitor, partial curve, poor fit]"
9,CCOc1cc(CNc2cccc3ccccc23)cc(Br)c1OCC(=O)NC(C)(C)C,"inconclusive: 35.5 µM [inhibitor, single point]"
10,Cc1ccc(CNC(=O)c2cccc3c2C(=O)c2ccc(N4CCCCC4)cc2S3(=O)=O)cc1,inactive
11,CC1=C(c2ccc(C)cc2)S(=O)(=O)NC1=NCCCN1CCN(c2ccccc2F)CC1,"inconclusive: 5.01 µM [inhibitor, partial curve, poor fit]"
12,COc1cc(C(=S)N2CCCCC2)ccc1OCC(=O)Nc1ccc(F)cc1,inactive
13,O=C(Nc1cccc(Cl)c1)c1ccc(F)c(S(=O)(=O)NCc2ccc3c(c2)OCO3)c1,"inconclusive: 35.5 µM [inhibitor, single point]"
14,O=C(NCCc1cccs1)c1ccc(Cl)cc1,inactive
15,Cc1nn(C)c2c1c(C(F)(F)F)cc(=O)n2CC(=O)NCCC(C)C,inactive
16,N#Cc1ccc(NC(=S)Nc2ccccc2)cc1,inactive
17,O=C(Nc1ccc(O)cc1)c1cc2ccccc2c(=O)s1,inactive
18,O=C1CCc2cc(S(=O)(=O)Nc3ccc(C(F)(F)F)cc3)cc3c2N1CC3,"inconclusive: 12.6 µM [inhibitor, partial curve, poor fit]"
19,COCCn1c(N)c(C(=O)OCc2ccccc2)c2nc3ccccc3nc21,inactive
20,Cn1c(CCNC(=O)c2ccco2)nc2cc(NS(=O)(=O)c3ccc(Cl)cc3)ccc21,"inconclusive: 3.98 µM [inhibitor, single point]"
21,Cn1nc(C(F)(F)F)c(C#N)c1N1CCN(c2cccc(C(F)(F)F)c2)CC1,inactive
22,COc1ccccc1N1CCN(c2ccc(=O)n(CC(=O)NCc3ccc(OC(C)C)cc3)n2)CC1,"inconclusive: 35.5 µM [inhibitor, single point]"

row,Compound,Potency
1,Cc1ccc(-c2cc(C(=O)N3CCCCC3)c3ccccc3n2)cc1C,"inconclusive: 35.5 µM [inhibitor, single point]"
2,Cc1c(C(=O)O)oc2c1C(O)CCC2 (stereo not given),"inconclusive: 17.8 µM [inhibitor, single point]"
3,CC(C)=CCc1c2c(c3occ(-c4ccc(O)cc4)c(=O)c3c1O)C=CC(C)(C)O2,active: 7.94 µM
4,CC(=O)c1ccc(S(=O)(=O)NC2CC(=O)N(c3ccc(C)cc3)C2)cc1 (stereo not given),"inconclusive: 35.5 µM [inhibitor, single point]"
5,COc1cc(NC(=O)CNC(=O)Cn2c(C)cc3ccccc3c2=O)cc(OC)c1OC,inactive
6,CC1CCCC(C)N1C(=C(Cl)Cl)C(=C1SCCS1)[N+](=O)[O-] (stereo not given),"inconclusive: 11.2 µM [inhibitor, partial curve, poor fit]"
7,Cc1ccc(N2CCN(S(=O)(=O)c3cc(C(=O)Nc4cc(Cl)cc(Cl)c4)ccc3F)CC2C)cc1 (stereo not given),"inconclusive: 35.5 µM [inhibitor, single point]"
8,CCc1nc2ccc(C(=O)NC3CCN(Cc4ccccc4)CC3)cn2c1N(CC)Cc1cccc(Br)c1,"inconclusive: 35.5 µM [inhibitor, single point]"
9,CCn1c(CC(=O)Nc2cccc(OC)c2)nnc1SCC(=O)Nc1nccs1,"inconclusive: 20 µM [inhibitor, partial curve, poor fit]"
10,COC(=O)c1scc(-c2ccc(C)cc2)c1S(=O)(=O)Nc1ccc(F)cc1F,"inconclusive: 28.2 µM [inhibitor, single point]"
11,COc1ccc(-c2csc(N(CCc3ccc(OC)c(OC)c3)C(=O)COc3ccccc3)n2)cc1,"inconclusive: 12.6 µM [inhibitor, partial curve, poor fit]"
12,CCCCCN(C(=O)CCC(=O)OCC(=O)N1C(C)CCCC1C)c1c(N)n(CCCC)c(=O)[nH]c1=O (stereo not given),"inconclusive: 0.794 µM [inhibitor, partial curve, poor fit]"
13,COc1ccc2oc(C(=O)OCC(=O)N(C)C3CCS(=O)(=O)C3)c(C)c2c1 (stereo not given),"inconclusive: 12.6 µM [inhibitor, partial curve, poor fit]"
14,Nn1c(SCC(=O)N2CCN(S(=O)(=O)c3ccccc3)CC2)nnc1-c1cccs1,"inconclusive: 15.8 µM [inhibitor, single point]"
15,Cc1ccc(NC(=S)N2CCC(c3nc4ccccc4s3)CC2)cc1,"inconclusive: 7.94 µM [inhibitor, single point]"
16,O=C1C(NS(=O)(=O)c2cccs2)=C(N2CCN(c3cccc(Cl)c3)CC2)C(=O)c2ccccc21,"inconclusive: 2 µM [inhibitor, full curve, poor fit]"
17,Cc1ccc(Cc2cnc(N3C(=N)SC(C)C3=O)s2)cc1 (stereo not given),"inconclusive: 22.4 µM [inhibitor, single point]"
18,Cc1ccc(C(=O)N/N=C\c2ccc(-c3ccc(Cl)cc3)o2)cn1,"inconclusive: 20 µM [inhibitor, single point]"
19,N/C(=N\OC(=O)c1ccccc1)C(C(=O)NOC(=O)c1ccccc1)C1CCCCC1 (stereo not given),"inconclusive: 35.5 µM [inhibitor, single point]"
20,COc1ccc(S(=O)(=O)N2CCCCCC2)cc1C(=O)N1CCN(c2ccccc2C)CC1,"inconclusive: 15.8 µM [inhibitor, single point]"
21,CC(C)CNC(=O)c1ccccc1NC(=O)c1ccccc1N(C)S(C)(=O)=O,"inconclusive: 14.1 µM [inhibitor, single point]"
22,O=S(=O)(c1ccc(F)cc1)N1CCCN(c2nccc(C(F)(F)F)n2)CC1,"inconclusive: 5.62 µM [inhibitor, single point]"

row,Compound,Potency
1,CCc1ccc(NC(=O)CSc2nc(-c3ccccc3Cl)nc3c2Cc2c(CO)cnc(C)c2O3)cc1,inactive
2,O=S(=O)(N/N=C/c1ccccc1F)c1ccccc1,inactive
3,Cc1ccc(Cl)cc1N1CCN(C(=O)c2ccc(CN3CCOCC3)cc2)CC1,"inconclusive: 35.5 µM [inhibitor, single point]"
4,CC(C)NC(=O)c1ccc(-n2c(-c3ccccc3)cc3c2CCCC3)cc1,"inconclusive: 22.4 µM [inhibitor, partial curve, poor fit]"
5,O=C(NC(Nc1nc2ccc([N+](=O)[O-])cc2s1)(C(F)(F)F)C(F)(F)F)c1ccccc1Cl,active: 0.447 µM
6,Cc1ccc(-c2nc(Nc3ccc(N4CCOCC4)cc3)c3ccccc3n2)cc1,"inconclusive: 22.4 µM [inhibitor, partial curve, poor fit]"
7,CC(=O)Oc1ccc(-c2ccc(C(=O)Nc3cccc(S(=O)(=O)N4CCOCC4)c3)cc2)cc1,active: 11.2 µM
8,CCC(=O)c1c[nH]c(C(=O)NCCCn2ccnc2)c1,"inconclusive: 2.82 µM [inhibitor, single point]"
9,COc1cc2c(cc1OC)C(C)N(C(=O)CCNC(=O)c1ccccc1)CC2 (stereo not given),inactive
10,Cc1ccc(N2CC(C(=O)OCc3nnc(-c4ccccc4)o3)CC2=O)cc1 (stereo not given),inactive
11,CC(C)Cn1c(=O)c2sccc2n2c(CCCC(=O)NCCc3ccc(Cl)cc3)nnc12,"inconclusive: 17.8 µM [inhibitor, single point]"
12,Cc1ccc(NC(=O)CSCC(=O)N(C)CC(=O)Nc2cccc(F)c2)cc1,"inconclusive: 35.5 µM [inhibitor, single point]"
13,O=C(Nc1ccc(Cl)cc1)Nc1cccc(C(=O)O)c1,inactive
14,O=C(COc1ccc(Br)cc1Cl)Nc1ncn[nH]1,inactive
15,CC1=CC(=C(C#N)C#N)C=C(C)N1CCN1CCNCC1,"inconclusive: 35.5 µM [inhibitor, single point]"
16,Cc1nn(-c2ccccc2)c(-n2cccc2)c1C(=O)NCCc1ccc(Cl)cc1,"inconclusive: 11.2 µM [inhibitor, partial curve, poor fit]"
17,C=CCOC(=O)C1=C(C)NC(SCC(=O)N(CC)CC)=C(C#N)C1c1ccco1 (stereo not given),inactive
18,COc1cccc(CNc2nc3cc(-c4ccccc4C)sc3c(=O)n2C)c1OC,"inconclusive: 14.1 µM [inhibitor, single point]"
19,O=C(CCl)N(c1ccccc1)c1ccccc1,"inconclusive: 25.1 µM [inhibitor, single point]"
20,Brc1cccc(-c2nnc3sc(CN4CCCCC4)cn23)c1,"inconclusive: 2.51 µM [inhibitor, full curve, poor fit]"
21,Nc1ncnc2oc(-c3ccco3)c(-c3ccco3)c12,"inconclusive: 12.6 µM [inhibitor, partial curve]"
